{
  "source": "patent US20090291999A1",
  "about": "“Agent Exhibiting a Neurotropic, Neuromodulator, Cerebrovascular and Anti-Stroke Activity” (AKHAPKINA, Valentina Ivanovna, priority 2006, published 2009)",
  "key": {"[1]": {"system": "rats with distal occlusion of medial cerebral artery (OMCA)", "experiment": "Ischemic stroke (OMCA) model: brain damage area by TTC staining", "assay_type": "in vivo, rat", "settings": "for Volume of damage area (DA) / Volume of ipsilateral hemisphere (IH) / DA/IH relation: 72 hours after OMCA"}, "[2]": {"system": "rats with hemorrhagic stroke (intracerebral post-traumatic hematoma)", "experiment": "Hemorrhagic stroke model: conditioned reflex of passive avoidance (CRPA)", "settings": "100 mg/Kg for 7 days; 7th and 14th days after the HS operation"}, "[3]": {"system": "rats with distal occlusion of medial cerebral artery (OMCA)", "experiment": "Ischemic stroke (OMCA) model: course injections for 10 days, ipsilateral hemisphere volume", "assay_type": "in vivo, rat", "settings": "for Volume of ipsilateral hemisphere: OMCA + 300 mg/Kg intraperitoneally for 10 days from 5 minutes after operation"}, "[4]": {"settings": "Group 6: 100 mg/Kg 60 minutes prior to OMCA"}, "[5]": {"settings": "Group 8: 300 mg/Kg 60 minutes prior to OMCA"}, "[6]": {"settings": "Group 9: 100 mg/Kg in 5 minutes after OMCA"}, "[7]": {"settings": "Group 10: 200 mg/Kg in 5 minutes after OMCA"}, "[8]": {"settings": "Group 11: 300 mg/Kg in 5 minutes after OMCA"}},
  "note": "Where “and” joins values, the source holds several entries; their conditions need not be identical. Equal values may be shown once.",
  "data": [
    {"smiles": "NC(=O)CN1CC(c2ccccc2)CC1=O", "note": "(centres unmarked) [Phenotropil, N-carbomoyl-methyl-4-phenyl-2-pyrrolidon]", "values": [
      {"measurement": "Reduction in the focal damage area compared to the control group", "setting": "[1]; 100 mg/Kg 60 minutes prior to the operation", "value": 36, "unit": "%"},
      {"measurement": "Reduction in the brain damage area", "setting": "[1]; 100 mg/Kg in 5 minutes after the operation", "value": 4, "unit": "%"},
      {"measurement": "Reduction in the focal damage area compared to the control group", "setting": "[1]; 200 mg/Kg 60 minutes prior to the operation", "value": 43, "unit": "%"},
      {"measurement": "Reduction in the brain damage area", "setting": "[1]; 200 mg/Kg in 5 minutes after the operation", "value": 6, "unit": "%"},
      {"measurement": "Reduction in the focal damage area compared to the control group", "setting": "[1]; 300 mg/Kg 60 minutes prior to the operation", "value": 48, "unit": "%"},
      {"measurement": "Reduction in the brain damage area", "setting": "[1]; 300 mg/Kg in 5 minutes after the operation", "value": 17, "unit": "%"},
      {"measurement": "Volume of damage area (DA)", "setting": "[1]; [4]", "value": "58.2 ± 5.71", "unit": "mm^3"},
      {"measurement": "Volume of ipsilateral hemisphere (IH)", "setting": "[1]; [4]", "value": "786.6 ± 4.74", "unit": "mm^3"},
      {"measurement": "DA/IH relation", "setting": "[1]; Group 6: 100 mg/Kg 60 minutes prior to OMCA, 100 mg/kg", "value": "7.4±0.72% and 7.39 ± 0.72 %"},
      {"measurement": "Volume of damage area (DA)", "setting": "[1]; Group 7: 200 mg/Kg 60 minutes prior to OMCA", "value": "49.2 ± 6.13", "unit": "mm^3"},
      {"measurement": "Volume of damage area (DA)", "setting": "[1]; [5]", "value": "48.1 ± 5.99", "unit": "mm^3"},
      {"measurement": "Volume of ipsilateral hemisphere (IH)", "setting": "[1]; [5]", "value": "797 ± 4.33", "unit": "mm^3"},
      {"measurement": "DA/IH relation", "setting": "[1]; Group 8: 300 mg/Kg 60 minutes prior to OMCA, 300 mg/kg", "value": "6.03 ± 0.75", "unit": "%"},
      {"measurement": "Volume of damage area (DA)", "setting": "[1]; [6]", "value": "86.5 ± 6.53", "unit": "mm^3"},
      {"measurement": "Volume of ipsilateral hemisphere (IH)", "setting": "[1]; [6]", "value": "787.9 ± 5.24", "unit": "mm^3"},
      {"measurement": "DA/IH relation", "setting": "[1]; Group 9: 100 mg/Kg in 5 minutes after OMCA, 100 mg/kg", "value": "11 ± 0.87", "unit": "%"},
      {"measurement": "Volume of damage area (DA)", "setting": "[1]; [7]", "value": "85.9 ± 7.78", "unit": "mm^3"},
      {"measurement": "Volume of ipsilateral hemisphere (IH)", "setting": "[1]; [7]", "value": "794.8 ± 4.27", "unit": "mm^3"},
      {"measurement": "DA/IH relation", "setting": "[1]; Group 10: 200 mg/Kg in 5 minutes after OMCA, 200 mg/kg", "value": "10.79 ± 0.97% and 10.8 ± 0.97%"},
      {"measurement": "Volume of damage area (DA)", "setting": "[1]; [8]", "value": "76.2 ± 7.59", "unit": "mm^3"},
      {"measurement": "Volume of ipsilateral hemisphere (IH)", "setting": "[1]; [8]", "value": "801.2 ± 3.63", "unit": "mm^3"},
      {"measurement": "DA/IH relation", "setting": "[1]; Group 11: 300 mg/Kg in 5 minutes after OMCA, 300 mg/kg", "value": "9.5 ± 0.94", "unit": "%"},
      {"measurement": "Reduction of brain damage area at the average", "setting": "[1]; injected 60 minutes before the operation and once a day for three days, average over doses", "value": 42, "unit": "%"},
      {"measurement": "Increase of latent time of entering a dark dangerous chamber compared to HS-rats", "setting": "[2]", "value": "~3", "unit": "times"},
      {"measurement": "Rats which remembered the negative situation", "setting": "[2]", "value": "up to 40%"},
      {"measurement": "Changes in the hemisphere volume", "setting": "[3]; 300 mg/Kg intraperitoneally for 10 days, 3rd vs 10th day", "value": "No reliable changes in the hemisphere volume"},
      {"measurement": "Shrinkage of the hemisphere (contraction to the damage area)", "setting": "[3]; 300 mg/Kg intraperitoneally for 10 days, on the 10th day", "value": "no shrinkage of the hemisphere was identified"},
      {"measurement": "Volume of ipsilateral hemisphere", "setting": "[3]; on the 3rd day", "value": "772.4 ± 4.5", "unit": "mm^3"},
      {"measurement": "Volume of ipsilateral hemisphere", "setting": "[3]; on the 10th day", "value": "773.17 ± 3.83", "unit": "mm^3"}
    ]}
  ]
}
